The source of these data is EP0534568B1 (ENIRICERCHE S.p.A., dated 1996).

For orientation: IC50 means the point on the concentration scale where inhibition reaches its midpoint.

In assay [1] the target is T1, growth hormone receptor in microsomal liver membranes of a pregnant rabbit (rabbit, UniProt P19941 19-638).
T1 construct: whole, on cells; The receptor stood in a liver microsomal membrane preparation (250 µg of proteins per tube), not on intact cells and not purified; also called membrane receptor; its own receptor
T1 sequence (looked up): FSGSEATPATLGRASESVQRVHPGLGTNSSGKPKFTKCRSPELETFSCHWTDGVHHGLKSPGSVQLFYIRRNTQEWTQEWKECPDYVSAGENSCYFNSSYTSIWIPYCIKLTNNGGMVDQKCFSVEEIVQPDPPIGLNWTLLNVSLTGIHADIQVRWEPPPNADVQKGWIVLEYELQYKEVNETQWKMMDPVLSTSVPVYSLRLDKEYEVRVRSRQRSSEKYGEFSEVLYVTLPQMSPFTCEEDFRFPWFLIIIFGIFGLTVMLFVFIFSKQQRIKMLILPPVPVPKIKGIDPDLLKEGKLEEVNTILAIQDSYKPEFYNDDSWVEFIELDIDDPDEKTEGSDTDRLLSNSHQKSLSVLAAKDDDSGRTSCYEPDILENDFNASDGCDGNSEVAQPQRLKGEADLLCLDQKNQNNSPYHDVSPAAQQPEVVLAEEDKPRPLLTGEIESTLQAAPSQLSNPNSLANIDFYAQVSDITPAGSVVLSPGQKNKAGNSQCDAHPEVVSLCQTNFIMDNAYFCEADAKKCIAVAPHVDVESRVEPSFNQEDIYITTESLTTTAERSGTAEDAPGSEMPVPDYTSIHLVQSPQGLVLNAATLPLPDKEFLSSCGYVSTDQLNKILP
Briefly: radioreceptor assay, displacement of radioiodinated hGH from pregnant rabbit liver microsomal membranes; relative to hGH = 100. A general note: Liver microsomes are vesicles of endoplasmic reticulum, rich in cytochrome P450 enzymes.

Assay [2] has as its target T1, growth hormone receptor in microsomal …. Briefly: radioreceptor assay, displacement of radioiodinated hGH from pregnant rabbit liver microsomal membranes.

B1: hGH mutant Arg134→Ala (ligand)
chain: not shown
notes: mature; also called Ala134; product of pSM386
Turning to B1, in assay [1], the “% of activity VS 212/5” value was determined as 74.6%. Further, the IC50 in assay [2] is 0.0255 µg/mL.

B2: hGH mutant Arg134→Phe (ligand)
chain: not shown
notes: mature; also called Phe134; product of pSM389
Take B2: the “% of activity VS 212/5” value in assay [1] was 79.1%. In addition, the concentration for half-maximal inhibition (IC50) in assay [2] stood at 0.0225 µg/mL.

B3: hGH mutant Arg134→Thr (ligand)
chain: not shown
notes: mature; also called Thr134; product of pSM388
In the case of B3, the “% of activity VS 212/5” value in assay [1] came to 83.8%. Further, in assay [2], the IC50 was 0.0212 µg/mL.

B4: hGH mutant Arg134→Leu (ligand)
chain: not shown
notes: mature; also called Leu134; Arg134-->Leu hGH
For the molecule B4, the “% of activity VS 212/5” value in assay [1] worked out at 87%. The molecule also displayed an IC50 in assay [2] of 0.0205 µg/mL.

B5: hGH mutant Arg134→His (ligand)
chain: not shown
notes: mature; also called His134; product of pSM391
For the molecule B5, the “% of activity VS 212/5” value in assay [1] is 95.2%. Moreover, the half-inhibitory concentration (IC50) in assay [2] is 0.02 µg/mL.

B6: hGH mutant Arg134→Pro (ligand)
chain: not shown
notes: mature; also called Pro134; product of pSM390
In the case of B6, in assay [1], the “% of activity VS 212/5” value stood at 81.2%. Also, the IC50 in assay [2] worked out at 0.0234 µg/mL.
